Where “and” joins values, the source holds several entries; their conditions need not be identical. Identical values can stand only once. Screen size: about 410,000 compounds; about 7,200 (1.8%) were called active. Inconclusive means that the source gave no clear call. Such entries were picked first, then a sample of the others. The call rests on the fitted dose curve; in most records, active means well fitted activation curve with a large enough effect; inconclusive means small, poorly fitted or top-dose-only effect, or another doubt; inactive means no such curve, though single readings can be large or run the other way. Potencies of inconclusive entries are left out as doubtful fits.
Assay: qHTS of TDP-43 Inhibitors; further: nearly all actives have a fitted effect of over 50% in size; on growth rescue (activation): % of control where 0% means no effect
Details: TDP-43 expressing yeast growth rescue, BacTiter-Glo, 24 h; growth rescue (activation): at 46.1 µM (top of the series) unless noted
Summary of the method: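 Yeast cells expressing TDP-43 under galactose induction are exposed to compounds for 24 hr at 30 deg C. BacTiter-Glo luminescence measures growth, so protective compounds score as activators.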
Potency means the concentration at half of the fitted maximal effect; tags describe the fitted curve by direction and shape.

| SMILES | Potency | growth rescue (activation) |
| --- | --- | --- |
| Cc1cccc(OC(=O)c2cc(-c3ccc(C)c(C)c3)on2)c1 | inconclusive [activator, full curve, poor fit] | – |
| COCCNc1c(-c2cc3ccc(C)c(C)c3[nH]c2=O)nc2ccccn12 | inactive | – |
| Cc1cc(=O)[nH]c(NNC(=O)c2ccc(Cl)cc2)n1 | inactive | – |
| CN(C)c1cccc(C(=O)N2CCCC(CCC(=O)NCc3ccccc3F)C2)c1 (stereo unspecified) | inactive | – |
| CC(C)c1nn2c(=O)cc(COC(=O)c3cccs3)nc2s1 | inactive | – |
| O=C(Nc1ccc(-c2nc3ccccc3o2)cc1)c1ccc(N2C(=O)C3C4C=CC(C4)C3C2=O)cc1 (stereo unspecified) | inactive | – |
| COc1ccc([N+](=O)[O-])cc1NC(=O)CSc1ccc2ccccc2c1 | inconclusive [activator, partial curve] | – |
| Cc1ccc(OCC(=O)NC2CCCCCC2)cc1C | inconclusive [activator, partial curve] | – |
| COc1ccccc1CNC(=O)C(C)n1c(=O)cc(-c2ccccc2)c2c(C)nn(C)c21 (stereo unspecified) | active: 15.8 µM | – |
| COc1ccc(C(=O)c2nccc3ccccc23)cc1 | inconclusive [activator, single point] | – |
| CC(Oc1ccc(Br)cc1)C(=O)O/N=C(\N)c1ccncc1 (stereo unspecified) | inconclusive [activator, single point] | – |
| O=C1CC(c2ccccc2)=Nc2ccccc2N1Cc1ccccc1 | active: 12.6 µM | – |
| COc1cc2cc(CNc3ccccc3)c(=O)n(CC(=O)Nc3ccc(C)c(Cl)c3)c2cc1OC | inactive | – |
| CCOc1ccccc1N1CCN(C(=O)c2cn(CC3CCCCC3)nn2)CC1 | inconclusive [activator, partial curve] | – |
| CCOC(=O)c1c(S(=O)(=O)N2CCCC(C(=O)NCc3cccc(C)c3)C2)c(C)n(C)c1C (stereo unspecified) | inactive | – |
| NC1=NC(c2cccc(Cl)c2)n2c(nc3ccccc32)N1 (stereo unspecified) | inactive | – |
| COc1c(F)cccc1C1=CC(=O)C[C@H](c2ccc(F)cc2)C1 | active: 17.8 µM | – |
| O=S1c2ccccc2Sc2ccccc21 | inconclusive [activator, partial curve] | – |
| COc1cccc(C(=O)N2c3ncnn3C3(CCCCC3)[C@@H]3CCCC[C@@H]32)c1 | inconclusive [activator, partial curve] | – |
| COc1ccccc1N1CCN(C(=O)Nc2cccc(C)c2)CC1 | inconclusive [activator, partial curve] | – |
| Cn1ncc2c(N3CCN(c4ccccc4F)CC3)ncnc21 | active: 12.6 µM | – |
| COc1ccc(C(=O)CC2(O)C(=O)N(Cc3cccc(C(F)(F)F)c3)c3ccccc32)cc1 (stereo unspecified) | active: 22.4 µM | – |
| C=CCn1cccc(C(=O)Nc2ccc(Cl)cc2)c1=O | active: 10 µM | – |

| SMILES | Potency | growth rescue (activation) |
| --- | --- | --- |
| CCOC(=O)c1ccc(-n2c(CCC(=O)O)ccc2-c2ccccc2)cc1 | active: 25.1 µM and active: 35.5 µM | – |
| CC(C)C[C@H]1CNC(=S)N1CC1CCN(CCC2CCCC2)CC1 | inactive | – |
| O=c1c2ccccc2sc2ccc(C#CC3(O)CCCCC3)cc12 | inconclusive [activator, single point] | – |
| Cc1cccc(C)c1NC(=O)C(c1ccccc1)n1c(-c2ccccc2)nc2ccccc21 (stereo unspecified) | inconclusive [activator, partial curve] | – |
| C(=NOCc1ccccc1)c1cccnc1 | inconclusive [activator, single point] | – |
| COC(=O)c1cc(-c2ccc(F)cc2)n(-c2ccccc2)n1 | – | inconclusive: 30.9% [activator] |
| O=C(c1ccc(S(=O)(=O)N2CCCC2)cc1)N1CCN(c2cccc(Cl)c2)CC1 | inconclusive [activator, single point] | – |
| Cc1c(Cl)cccc1-n1ncc(C(=O)NC2CCCCC2)c1C1CCN(C(=O)OC(C)(C)C)CC1 | inconclusive [activator, full curve, poor fit] | – |
| CC1(Cc2ccc(F)c(Cl)c2)C(=O)Nc2c(Cl)cccc21 (stereo unspecified) | active: 22.4 µM | – |
| CCC1Sc2ccc(S(=O)(=O)N3CCN(c4ccccc4)CC3)cc2NC1=O (stereo unspecified) | inconclusive [activator, partial curve] | – |
| Cc1cccc(N2CCN(S(=O)(=O)c3cc(C(=O)Nc4ccc(Oc5ccccc5)cc4)ccc3F)CC2)c1C | inactive | – |
| O=C(O)c1ccc(N/N=C/c2cn(Cc3ccc(F)cc3)c3ccccc23)cc1 | inconclusive [activator, single point] | – |
| CC(C)C1C(=O)N(Cc2cn(CCC3OCCCO3)nn2)CCS(=O)(=O)N1Cc1ccc(-c2cccc(CO)c2)cc1 (stereo unspecified) | inconclusive [activator, full curve, poor fit] | – |
| Cc1ccc(S(=O)(=O)Nc2nc3ccccc3nc2NCC2CCCO2)cc1C (stereo unspecified) | inconclusive [activator, single point] | – |
| COc1cc(NC(=O)c2cccs2)c(C(=O)OCC(=O)NC(C)c2ccccc2)cc1OC (stereo unspecified) | inconclusive [activator, partial curve, poor fit] | – |
| COc1ccccc1-c1nc(C(=O)NCC2CCCO2)cc2c1[nH]c1ccccc12 (stereo unspecified) | active: 20 µM | – |
| O=C1CCC(C(=O)Nc2cccc(Br)c2)N1 (stereo unspecified) | inactive | – |
| C[C@]1(C(=O)NCCCNc2ncc(C(F)(F)F)cc2Cl)C=C[C@@H](Cc2ccccc2)N1C(=O)c1ccccc1 | inconclusive [activator, single point] | – |
| Cc1cc(C)c(S(=O)(=O)c2ccc(F)cc2C)c(Cl)n1 | inconclusive [activator, partial curve] | – |
| Cc1ncc2c(n1)-c1cc(F)ccc1SC2 | inconclusive [activator, partial curve] | – |
| O=C(CNC(=S)N(Cc1ccccc1)Cc1ccccc1F)NCc1ccccc1 | inconclusive [activator, partial curve] | – |
| CCc1ccc(S(=O)(=O)Nc2cccc(-c3ccc(N4CCOCC4)nn3)c2)cc1 | inactive | – |
| CCc1nn2cc(-c3ccccc3)nc2s1 | inconclusive [activator, single point] | – |
